# Experimental data: PubChem BioAssay AID686971 (National Center for Advancing Translational Sciences (NCATS), 2013)
# About 7,500 (2.1%) of roughly 360,000 compounds were called active. Inconclusive means that the source gave no clear call. Such entries were picked first, then a sample of the others. Calls follow the shape of the dose curve; as a rule, active = well fitted cell-killing curve with a large enough effect; inconclusive = small, poorly fitted or top-dose-only effect, or effect the other way, or another doubt; inactive = no such curve, though single readings can be large or run the other way. Potencies of inconclusive entries are left out as doubtful fits.
# Assay: qHTS for induction of synthetic lethality in tumor cells producing 2HG: qHTS for the HT-1080-IDH1KD cell line;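 as to activity, negative = toxicity: 0% = DMSO wells and -100% = cell-free medium wells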
# Conditions: HT-1080 IDH1 knockdown viability, ATP luminescence, 48 h; activity, negative = toxicity: at 46.1 µM (top of the series) unless noted
# Method in brief: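 In this qHTS, HT-1080 cells depleted of IDH1 are exposed for 48 h at 37 °C to compound titrations. Toxicity is scored from CellTiter-Glo luminescence, with DMSO as full viability and medium alone as none.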
# Potency is read from the fitted curve at half-maximal effect; tags tell the direction and shape of the fitted curve.
Compound,Potency,"activity, negative = toxicity"
CN(C)c1ccc2nc3ccc(=[N+](C)C)cc-3sc2c1,active: 20.6 µM,
COc1ccc(-c2cc(=O)n(-c3nc4ccccc4[nH]3)[nH]2)cc1,"inconclusive [cytotoxic, single point]",
COc1cc(/C=C/C(=O)N2CCC=CC2=O)cc(OC)c1OC,active: 4.11 µM,
Nc1nnc(C(=O)c2ccccc2N)s1,"inconclusive [cytotoxic, single point]",
COc1ccccc1CNC(=O)c1cccc(N(C)C)c1,,inactive: 15.9%
Cc1ccc2c(c1)C=CC(C#N)N2C(=O)c1ccccc1 (stereo not given),active: 1.46 µM,
CC(=O)N1CCC2(CC1)NC(=O)N(c1ccccc1)N2,active: 4.11 µM,
CCN(CC)CCN(Cc1cc2ccc(C)cc2[nH]c1=O)C(=O)NC1CCCCC1,,inactive: -1.08%
CCCCC(=O)NC(c1ccc(OC)c(OC)c1)c1c(O)ccc2ccccc12 (stereo not given),,inactive: -12.6%
O=C(N/N=C/c1ccccn1)c1cccc([N+](=O)[O-])c1,"inconclusive [cytotoxic, single point]",
Cc1ccc2nc(-c3ccccn3)oc2c1,"inconclusive [cytotoxic, partial curve]",
Cc1cc(C(=O)COc2ncnc3sccc23)c(C)n1C1CC1,"inconclusive [cytotoxic, single point]",
O=C(NCc1ccccn1)c1coc(=O)c(Br)c1,"inconclusive [cytotoxic, single point]",
O=C(CCN1C(=O)/C(=C\c2ccccc2)SC1=S)NNC(=O)c1ccccc1O,"inconclusive [cytotoxic, partial curve]",
COc1ccccc1N1CCN(c2ccnc3cc(Cl)ccc23)CC1,active: 7.31 µM,
O=C(C1=C[C@@H](c2ccc(Br)cc2)C[C@@H](OCc2ccc(CO)cc2)O1)N1CCN(Cc2ccccc2)CC1,"inconclusive [cytotoxic, single point]",
CC(C)(C)c1ccccc1OCC(=O)Nc1ccccc1C(=O)NCc1cccnc1,"inconclusive [cytotoxic, partial curve]",
Cc1c(O)nc(SC2CC(=O)N(c3cc(Cl)cc(Cl)c3)C2=O)[nH]c1=O (stereo not given),,inactive: 17.6%
CCOC(=O)c1c(NC(=O)CSc2nnc(-c3cccc(C)c3)n2CC)sc(C(C)=O)c1C,"inconclusive [cytotoxic, single point]",
O=C(N/N=C/c1ccccn1)c1ccc(Br)cc1,"inconclusive [cytotoxic, partial curve]",
CC(C)(C)C(=O)Cn1c(NCCO)nc2ccccc21,,inactive: 2.2%
CCOCCCNC(=O)c1cc2c(-c3ccc(Cl)cc3)nn(C)c2s1,"inconclusive [cytotoxic, single point]",
Cc1ccc(Cl)cc1N1CCN(C(c2ccc(C#N)cc2)c2nnnn2C2CCCC2)CC1 (stereo not given),,inactive: 0.816%

Compound,Potency,"activity, negative = toxicity"
CN(C)S(=O)(=O)c1ccc(Nc2nc(C3CC3)nc3c2nnn3Cc2ccccc2Cl)cc1,active: 5.8 µM,
O=C(NCc1ccc(F)cc1)c1cc(C2CCCCN2C(=O)CCCc2ccccc2)on1 (stereo not given),,inactive: -0.42%
CCCc1[nH]n(-c2ccc(F)cc2)c(=O)c1C=Nc1cccc(F)c1,active: 14.6 µM,
Cc1ccc(Cl)cc1N1CCN(C(=O)C2CCN(S(=O)(=O)c3cccnc3)CC2)CC1,,inconclusive: -30.6% [cytotoxic]
COc1ccc(/C=C(\C#N)c2nc3ccccc3[nH]2)cc1O,"inconclusive [cytotoxic, single point]",
COC(=O)CC(=O)CSc1nc2c(cc1C#N)CCC2,"inconclusive [cytotoxic, single point]",
C/C(=N\NC(=O)c1ccccc1OCCOc1ccccc1)c1ccccc1F,"inconclusive [cytotoxic, single point]",
Cc1occc1-c1nnc(SCC(=O)N2CCN(c3ccc(F)cc3)CC2)n1C,"inconclusive [cytotoxic, single point]",
O=C(CSc1nc2nc(-c3cccs3)cc(C(F)(F)F)c2c(=O)[nH]1)Nc1ccc(F)c(F)c1,"inconclusive [cytotoxic, partial curve]",
O=C1C(Cl)=C(NCCc2ccccc2)C(=O)c2ccccc21,"inconclusive [cytotoxic, single point]",
CCOC(=O)N1[C@@H]2C=C(C)[C@@H]2[C@@H]2[C@@H](C)C(=O)N21,,inactive: 22.3%
Cc1cc(C)cc(C(=O)NCC(=O)OCc2cc([N+](=O)[O-])cc3c2OCOC3)c1,"inconclusive [rising, single point]",
C=CCn1c(SCC(=O)c2cccs2)nc2sc(C)cc2c1=O,"inconclusive [cytotoxic, partial curve]",
CCc1nc2ccc(C(=O)N(C)CC(=O)Nc3ccc(Cl)c(C(F)(F)F)c3)cc2nc1CC,active: 20.6 µM,
COc1cc(NC(=S)NCCc2c[nH]c3ccccc23)c(OC)cc1Cl,"inconclusive [cytotoxic, single point]",
CCOC(=O)CC(=O)CSc1ccc2nnc(-c3cccc(F)c3)n2n1,"inconclusive [cytotoxic, partial curve, poor fit]",
O=C(Oc1ccc(Cl)c2cccnc12)c1ccco1,"inconclusive [cytotoxic, single point]",
CCOc1ccc(CCN2C(=O)C(=O)N([C@@H](Cc3ccccc3)CN3CCC[C@H]3CN3C(=O)C(=O)NC[C@@H]3Cc3ccccc3)C[C@@H]2Cc2ccccc2)cc1,"inconclusive [cytotoxic, single point]",
Cn1cc(C(=O)N/N=C/c2c(O)ccc3ccccc23)ccc1=O,"inconclusive [cytotoxic, full curve]",
COc1cc(C(=O)NNC(=O)c2ccccc2Br)ccc1OCC(=O)N1CCOCC1,,inactive: 13.6%
Cc1onc(-c2c(Cl)cccc2Cl)c1C(=O)N/N=C(\N)COc1ccc(Cl)cc1,"inconclusive [cytotoxic, partial curve]",
CCCCn1nnnc1C(CCc1ccccc1)N1CCN(C/C=C/c2ccccc2)CC1 (stereo not given),"inconclusive [cytotoxic, single point]",
